The record followed here is the RNAGym collection of RNA variant scans (doi:10.7554/elife.90254).

Read counts are not given, so values of variants with three or more changes are uncertain.

First the molecules themselves.
B1: LINE1-full (parent)
chain: UACGUAGGUGGUUUUCCCCUGAUAGUGCUAAGGGGGCCUGGAAGUUUGGACUGGGCAGAGCUCAACACAGCGUGGCAAAGUGGCUGUGGCUAGACUGCCUCUCUGGAUUCCUCGUCACUCAGCAGGGCAUCUCUGAGAGAAAUGCC

Variants of B1 are the subject of this data set. In words: self-cleavage, relative activity (ratio to wild type); higher = more cleavage; in vitro, sequencing; the parent is a self-cleaving ribozyme.
As for U23C C71U U119C G127C A136U, the self-cleavage worked out at 0.8.
Then U23C U115C C123U, with 2.01.
Then U20C U112C U119A, with 1.8.
The figure for A22G A59G U91C is 0.
With U23A A79G A136G, the self-cleavage was 1.53.
Then A22G U62A C99U U134C U143A, with 0.12; and A22G A79G U115A U130C C131U, with 2.04; and U23C A78C A138U A141G, with 1.84.
Regarding G21A U109A U115C A124U, the self-cleavage turned out to be 1.09.
Then A22G U109C A142G, with 0.
The figure for A22G U112C A142G is 1.89; for A22C U96C A138C it is 0; for A22G G97A A142G it is 0.05.
The figure for A22G U46C G48U A138U is 0.85; for A22G U91C U104G A141G it is 0; for A22G A43G A107G it is 0.8.
Turning to G21U G75U U112C C113U A124G, the self-cleavage worked out at 0.36.
As for A22U A42G U62C G97A A107U A140G, the self-cleavage came out at 0.01.
The figure for A22G A57U A67C U100C U109C is 0.27; for G21U A43U U52C A78G U81C it is 2.3; for A22G U39A U143C it is 1.84.
Then A22G A42G A92G, with 0; and U23A A31G A42G U81A, with 2.24.
As to U23C U47A A141G, the self-cleavage came out at 1.46.
The figure for A22G U52C G75A is 0.96; for A22G U73C U96A A138G it is 0.
The figure for U20G U46A A67G is 0.41; for A22G U81C U100C A141G it is 1.84; for A22G U39C A69U it is 0.22.
The figure for A22C A64G U73C is 0; for A22U U62C G72U U108A it is 0.02; for A22G U130C A136G it is 0.66.
For the variant U23A C128G A129C, the self-cleavage came out at 0.91.
The figure for A22G A67U A92G A121G A129G is 0; for U23C U96A C111A A138G it is 0.11.
The figure for U23A A59G A77U U112C is 0.
Consider U20G C110A A140G, for which the self-cleavage turned out to be 1.16.
The figure for A22U G35C U91C A142G U143C is 1.45; for U23C A78G A142G it is 1.08; for U23C A77G U115C it is 1.48.
Then A22G U62C U87G A107G U132A, with 0.37; and G21U U26C A43U G139A, with 1.22; and A22U C68U U102C A142G, with 0.17.
Then A22G A57U U100C, with 0.5; and A22U G82A A141G, with 1.44.
Consider G21A G35A U47C U104C A121G G144A, for which the self-cleavage is 2.02.
Then A22G U23A U29A U47C U102A, with 0.92; and A22U C56U A69G, with 0.12.
The figure for U23C A50G A64G C101U is 0.44; for A22C A57U G93A it is 0.
With U23C C37A U81C, the self-cleavage was found to be 0.93.
Then A22U G83U U112C U130C A140G, with 1.16.
The figure for A22G A59U A94G U112C C131A is 1.62; for U23C G35U U143C it is 1.36.
Then U23A A31U G41U, with 1.65.
For the variant A22U A69G U87A, the self-cleavage was found to be 0.09.
The figure for A22U A50U U81A U119C A141G is 1.99; for G21A U29C A30U A43U U62C A136U it is 0.07; for A22U A65G U96C A140G it is 0.28.
Then U23C G72A U73C, with 1.67.
Regarding A22G U62G A69U G144A, the self-cleavage was 0.
Then A22U A94U A124C, with 0.4; and A22G U45C A57U U62C U85C U115A, with 0.
The figure for G21A C56U U85G U115A A140G is 0.01; for A22G A107U A124G it is 1.11.
Then A22U C99U G125A, with 0.54; and A22G G36A U87C U109C U132A A138G U143C, with 0; and U23A A107G A142G, with 2.13.
For the variant U20G U91C A136G U143C, the self-cleavage worked out at 0.57.
The figure for G21U A77G G86A A94G C99U is 0.08; for A22U G33A A59G A65G U73C it is 0.
Regarding A22G U26C G36U G53A G97C U109C A138G, the self-cleavage was found to be 0.03.
Then A22C U46A U132C A138G, with 0.74; and U23C G33U A94G A141G, with 0.66.
The figure for U20G U39A U132A is 1.25; for A22G A30G A69G it is 1.39; for A22U U29C A31U it is 1.31.
Then A22G A79U G126A, with 1.44; and A22G U87C U119C, with 1.31; and U23C U46C G89A A141G, with 0.17.
Turning to A22G C38U A64G G70C, the self-cleavage stood at 0.17.
A22G U47A A65G: the self-cleavage was found to be 0.18.
The figure for A22U G32U A67G U91C U100A is 0.12.
